Laboratory results: ChEMBL document CHEMBL4888484, “Replenishing the malaria drug discovery pipeline: Screening and hit evaluation of the MMV Hit Generation Library 1 (HGL1) against asexual blood stage Plasmodium falciparum ,using a nano luciferase reporter read-out” (2022)
About 420 (8.8%) of roughly 4,800 compounds showed an effect of 50% or more. The list shows a part of the results.

The compounds below were run on Plasmodium falciparum (assay: Confirmatory screen in NF54 nanoGlo assay, in single point, at 2uM, 72h). Settings: timepoint 72 hour.
Assay type: functional, Erythrocyte

SMILES | % Inhibition
Nc1nonc1C(=O)N1CCN(C(=O)Nc2cccc(F)c2)CC1 | -6%
Cc1nn(-c2ncc(C(F)(F)F)cc2Cl)c(=O)n1-c1cccc(Cl)c1 | 1%
CCc1n[nH]c(=O)c(C(=O)Nc2cnc3[nH]nc(C)c3c2)c1CC | -1%
Cc1cccc(N2CCN(C(=O)CN3CCN(Cc4ccc(Cl)cc4)C3=O)C[C@@H]2C)c1 | -4%
Cc1ccsc1CN(C(=O)c1cccc[n+]1[O-])C(C)C | -1%
O=C(c1ccc(COc2ccc(Cl)cc2Cl)cc1)n1cc(Br)cn1 | -4%
O=C(CN1C(=O)N[C@H](c2ccc(F)cc2)C1=O)Nc1ccc2c(c1)OCCO2 | -12%
Cc1nsc2ncn(C[C@H](O)COCc3ccco3)c(=O)c12 | 3%
COc1cc(F)c([C@H](C)NC(=O)N(C)Cc2ccco2)cc1OC | 49%
Clc1ccc(Cl)c(-c2ccc(CNCCOc3ccccn3)o2)c1 | 4%
CCC(=O)N1CCN(c2nc3c(s2)C[C@@H](C(=O)Nc2cccc(Cl)c2)CC3)CC1 | -17%
Cc1ccn(-c2ccc(C(=O)NC3CCCC3)cn2)n1 | -13%
CC(C)(C)n1ncc2c1NC(=O)C[C@@H]2c1c(F)cccc1Cl | -18%
COCC[C@](C)(O)CNC(=O)Nc1ccccc1 | 1%
CCCc1nc(CNc2cccc3c2N(C(C)=O)CC3)no1 | -11%
CCOc1cc(Cl)c(Cl)c(C#N)c1OC(C)=O | -4%
COC(=O)C1=C(C(=O)OC)SC(=C2C(=S)C(C)(C)N(C(=O)COc3ccc4ccccc4c3)c3ccccc32)S1 | 9%
N#CC1(c2ccccc2)c2ccccc2C(=O)c2ccccc21 | -8%
COc1ccc(CCNC(=O)c2cnn3c4c(cnc23)C[C@@H](C)CC4)cc1OC | 37%
O=C(Nc1ccccc1)c1ccc(Nc2ncc(-c3cccc(F)c3)cn2)cc1 | -3%
COc1cc(-c2nc3ccccc3s2)ccc1OCc1cccc2ccccc12 | -7%
CCN1C(=O)C[C@H](C(=O)Nc2cnc3ccccc3c2)[C@H]1c1nccn1CC | 2%

SMILES | % Inhibition
CC(C)=C(F)C(=O)N1CC[C@H](CO)C[C@@H]1C | -3%
[O-]/[N+](=C\c1ccncc1)Cc1ccccc1 | -15%
C=CCOc1ccc(CN(C)S(=O)(=O)CC#N)cc1 | -1%
Cc1c(Cl)cccc1C(=O)N1CCC[C@H](Cn2cncn2)C1 | -2%
Cc1cccn2cc(CN(C)[C@H](c3ccccn3)C3CC3)nc12 | 7%
CN1CCN(c2nc(O)c3c(n2)NC(=O)C[C@H]3c2c(F)cccc2F)CC1 | -3%
Nc1c(-c2ccc(F)cc2)cnc2cc(-c3ccc(Cl)c(Cl)c3)nn12 | 3%
CC(=O)N1CCC2(CC1)NN=C1C=CC(c3nc(C(C)(C)C)no3)=CN12 | -5%
CC[C@H]1Cn2c(C(=O)NCc3ccc(C)o3)cc3cccc(c32)O1 | -11%
CCN(CC(=O)Nc1ccc2c(c1)OCCO2)C(=O)CCc1c(C)noc1Cl | 14%
O=S(=O)(c1ccccc1Br)N1CC[C@H]1c1ccccc1 | -6%
Fc1ccc(Nc2nc(OC(C(F)(F)F)C(F)(F)F)nc(N3CCCCCC3)n2)cc1 | -9%
CCN(C(C)=O)c1nc(CN2CCc3cc(C)cc(C)c3C2)cs1 | 0%
Cc1nnc(-c2cnn(C)c2N)n1C[C@H]1CCCO1 | -2%
Cc1ccc(Cl)c2ccc(NC(=O)CCNC(N)=O)nc12 | 0%
COC(=O)c1ccccc1NC(=O)NCCn1nnc2cc(S(=O)(=O)N(C)C)ccc21 | 55%
COCC(=O)N[C@H]1CO[C@H]2[C@@H]1OC[C@@H]2Nc1nccc(-c2cccc(C#N)c2)n1 | 4%
CC(=O)N1CCCN(C(=O)c2ccccc2)CCNC(=O)[C@@H]2CCC[C@@H]21 | 0%
COc1nc(-c2cccc(C(=O)NCC3CCOCC3)c2)ncc1F | 66%
C=CCN(CC=C)C(=O)COc1cc(C)c(C)nn1 | 2%
CCn1c(=O)c(N2CCN(C(=O)Nc3ccc(F)cc3F)CC2)nc2ccccc21 | 2%
O=C(CN1CCC[C@H](O)C1)N(C1CCCCC1)C1CCCCC1 | 7%

SMILES | % Inhibition
Cc1cc(C(=O)N[C@H]2CCS(=O)(=O)C2)nc(N(C)C)n1 | -6%
CC[C@H](Nc1ccc(Cl)c(NC(C)=O)c1)C(=O)OC | -10%
CN(CC(F)(F)F)S(=O)(=O)c1ccc(C(=O)O)cc1 | -5%
COCCOc1ccc2c(n1)CCN(C(=O)c1ccc(OC)cc1)C2 | -14%
COc1ccc(-n2nnnc2C2(N3CCOCC3)CCCC2)cc1OC | -6%
CN1CCC2C(CCN2C(=O)Nc2ccc(Cl)c(C(F)(F)F)c2)C1 (stereo not given) | 2%
Cc1cc(C(=O)NCCCN2CCCC2=O)nn1C(F)F | -13%
Oc1nc(-c2cccc(C(F)(F)F)c2)sc1-c1ccccc1 | 0%
COCCCn1c(NS(=O)(=O)c2ccccc2)c(S(=O)(=O)c2ccc(C)cc2)c2nc3ccccc3nc21 | 61%
CC(C)(C)OC(=O)N1CCC2(CC1)NN=C1C=C(N3CCN(c4ccccc4F)CC3)N=CN12 | -8%
CC(C)(C)OC(=O)NCc1ccccc1O | 1%
COc1cccc2c(=O)c3c([nH]c12)CCN(CC(=O)NCc1ccccc1Cl)C3 | 42%
CCn1cc2c(n1)c(=O)n(Cc1ccc(C)cc1)c(=O)n2CC(=O)Nc1ccc(C)cc1C | -10%
CCOC(=O)c1cc(NC(=O)NCCS(C)(=O)=O)c(F)cc1C | -9%
O=S(=O)(c1cccnc1)N(CC1CCCCC1)c1cnccn1 | -2%
COc1ccc(S(=O)(=O)N(C2CCCCC2)C2CCCCC2)cc1 | -11%
COc1cc(C)c2[nH]c3c(c(=O)c2c1)CN(CC(=O)Nc1ccc2c(c1)OCCO2)CC3 | 16%
Cc1occc1C(=O)NC1(c2ccccc2)CCOCC1 | -5%
Cc1cc(C)c(CNC(=O)c2c[nH]c3ncccc23)c(=O)[nH]1 | -2%
CC1CCCCC1NC(=O)CN1CCN(Cc2cccc(Cl)c2)C1=O (stereo not given) | -11%
CC(C)c1cccc(Nc2nc3ccncc3n(C(C)C)c2=O)c1 | 95%
